About 2,200 (0.71%) of roughly 310,000 compounds showed an effect of 50% or more. The effect is printed as a negative number. The list shows a part of the results.

Sequence of human ether-à-go-go-related gene (hERG) potassium channel (Q12809 whole entry, looked up): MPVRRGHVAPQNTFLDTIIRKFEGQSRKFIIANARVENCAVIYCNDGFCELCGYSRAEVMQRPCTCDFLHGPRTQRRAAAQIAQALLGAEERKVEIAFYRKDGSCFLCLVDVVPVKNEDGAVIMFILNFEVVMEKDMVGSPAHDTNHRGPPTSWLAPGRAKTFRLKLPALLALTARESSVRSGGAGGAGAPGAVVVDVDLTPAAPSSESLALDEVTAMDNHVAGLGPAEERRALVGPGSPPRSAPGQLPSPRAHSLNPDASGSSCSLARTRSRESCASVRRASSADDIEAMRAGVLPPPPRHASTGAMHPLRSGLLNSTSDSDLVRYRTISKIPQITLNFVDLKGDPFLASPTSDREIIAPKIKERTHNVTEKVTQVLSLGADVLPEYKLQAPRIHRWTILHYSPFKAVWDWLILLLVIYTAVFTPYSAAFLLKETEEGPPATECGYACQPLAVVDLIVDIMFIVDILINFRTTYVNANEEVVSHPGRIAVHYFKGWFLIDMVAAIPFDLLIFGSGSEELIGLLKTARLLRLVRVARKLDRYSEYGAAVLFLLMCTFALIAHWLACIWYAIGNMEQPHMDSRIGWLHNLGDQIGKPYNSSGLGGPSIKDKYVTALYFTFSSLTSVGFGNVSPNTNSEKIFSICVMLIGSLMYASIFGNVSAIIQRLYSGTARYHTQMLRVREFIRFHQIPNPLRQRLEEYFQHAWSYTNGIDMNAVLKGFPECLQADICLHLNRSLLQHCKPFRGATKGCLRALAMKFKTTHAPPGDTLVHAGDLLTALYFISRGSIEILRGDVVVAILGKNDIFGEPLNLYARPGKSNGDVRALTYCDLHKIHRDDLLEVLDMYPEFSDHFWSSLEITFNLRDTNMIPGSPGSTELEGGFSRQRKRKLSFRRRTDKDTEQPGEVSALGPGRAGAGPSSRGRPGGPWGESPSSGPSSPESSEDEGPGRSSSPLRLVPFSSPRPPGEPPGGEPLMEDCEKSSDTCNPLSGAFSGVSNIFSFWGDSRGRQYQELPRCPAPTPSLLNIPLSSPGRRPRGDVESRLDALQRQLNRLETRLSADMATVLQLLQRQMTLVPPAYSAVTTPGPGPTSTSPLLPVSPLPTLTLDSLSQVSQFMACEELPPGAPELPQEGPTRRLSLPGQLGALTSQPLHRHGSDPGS

The test addresses human ether-à-go-go-related gene (hERG) potassium channel (human, UniProt Q12809). Put plainly: primary screen, population patch clamp on CHO cells stably expressing hERG.
With `Brc1ccc(CSc2nnc(-c3cccnc3)o2)cc1`, the “hERG current change (%, negative = inhibition) at 1uM” value is reported as 6.81%.
Turning to `CC(C)(CN1CCN(C(c2ccccc2)c2ccccc2)CC1)NS(=O)(=O)c1ccccc1`, the “hERG current change (%, negative = inhibition) at 1uM” value is 9.37%.
Turning to `COC(=O)c1ccc(NC(=O)CSc2nnc(CNc3ccc(OC)cc3)n2C)cc1`, the “hERG current change (%, negative = inhibition) at 1uM” value was determined as 17.6%.
In the case of `C[C@H](CCCC/C=C/C(=O)O)O[C@@H]1O[C@@H](C)[C@H](O)C[C@H]1O`, the “hERG current change (%, negative = inhibition) at 1uM” value stood at 5.13%.
Regarding `Cc1ccc(/C=C/C(=O)O)cc1S(=O)(=O)NC1CCS(=O)(=O)C1` (stereo not shown), the “hERG current change (%, negative = inhibition) at 1uM” value came to 16.5%.
`CCN(CC)Cc1c(C(=O)OC)nnn1-c1nonc1N`: the “hERG current change (%, negative = inhibition) at 1uM” value was found to be 14.7%.
For the compound `COc1ccc(NC(=O)c2sc3nc(C)nc(N4CCN(c5ccccn5)CC4)c3c2C)cc1Cl`, the “hERG current change (%, negative = inhibition) at 1uM” value was found to be 8.92%.
On to `O=c1cc(CSc2nnc(COc3ccccc3)o2)c2ccccc2[nH]1`, for which the “hERG current change (%, negative = inhibition) at 1uM” value came out at 10.3%.
Take `O=S(=O)(c1cccc(-c2nnc(-c3ccc(Br)cc3)o2)c1)N1CCCCCC1`: the “hERG current change (%, negative = inhibition) at 1uM” value is recorded as -12.8%.
Turning to `Cc1ccc(S(=O)(=O)NC(CC(=O)O)c2ccccc2)c(C)c1` (stereo not shown), the “hERG current change (%, negative = inhibition) at 1uM” value is 11%.
For `CCSc1nnc2ccc(-c3ccc(C)cc3)nn12`, the “hERG current change (%, negative = inhibition) at 1uM” value was found to be 14%.
In the case of `Cc1ccc(CNC(=O)CCS(=O)(=O)c2ccc3c(c2)NC(=O)CO3)cc1` it was 10.9%; in that of `C/C(=N\NC(=O)C1CC1(c1ccccc1)c1ccccc1)c1cccc([N+](=O)[O-])c1` (stereo not shown), -12.6%.
With `Cc1c(Cl)cccc1NC(=O)Cn1nc(C)n2cccc2c1=O`, the “hERG current change (%, negative = inhibition) at 1uM” value came out at 10.4%.
For `O=C(CN1C(=O)COc2ccc(S(=O)(=O)N3CCOCC3)cc21)NCc1ccco1`, the “hERG current change (%, negative = inhibition) at 1uM” value turned out to be 8.81%.
Turning to `C=CCc1cccc(CNc2nc3ccccc3n2CCN2CCOCC2)c1O`, the “hERG current change (%, negative = inhibition) at 1uM” value was 2.18%.
As for `Cn1c(Cl)cnc1C(O)(c1ccccc1)c1ccccc1`, the “hERG current change (%, negative = inhibition) at 1uM” value turned out to be 15%.
Consider `CCCCOC(=O)Cn1c(=N)n(CCN(CC)CC)c2ccccc21`, for which the “hERG current change (%, negative = inhibition) at 1uM” value is on record as -18.6%.
For the compound `O=C(O)CNC(=O)c1ccc(N2CCOCC2)cc1[N+](=O)[O-]`, the “hERG current change (%, negative = inhibition) at 1uM” value stood at 8.02%.
As to `O=C(Nc1ccc2nc3ccccc3nc2c1)c1ccccc1`, the “hERG current change (%, negative = inhibition) at 1uM” value stood at 12.9%.
With `COc1ccc(S(=O)(=O)n2nc(-n3c(C)ccc3C)c3c(F)cccc32)cc1OC`, the “hERG current change (%, negative = inhibition) at 1uM” value is 13.4%.
Regarding `CCc1nc(Nc2ccc(NC(C)=O)cc2)c2oc3ccccc3c2n1.Cl`, the “hERG current change (%, negative = inhibition) at 1uM” value was determined as 19.7%.
On to `CC(NC(N)=O)C(=O)NCC(=O)OCc1ccccc1` (stereo not shown), for which the “hERG current change (%, negative = inhibition) at 1uM” value came out at 9.31%.
In the case of `CCOC(=O)c1cnn(-c2ccccn2)c1N`, the “hERG current change (%, negative = inhibition) at 1uM” value is reported as -6.09%.
In the case of `CNS(=O)(=O)c1cccc(C(=O)OCc2cc(C(C)=O)ccc2OC)c1` it was 10.4%; in that of `CC(=O)[C@@]1(O)CC[C@H]2[C@@H]3C[C@H](C)C4=CC(=O)CC[C@]4(C)[C@H]3CC[C@@]21C`, 9.7%.
In the case of `O=C(Cn1ncc2c3ccccc3n(Cc3ccccc3F)c2c1=O)NCCN1CCOCC1` it was -21.4%.
Take `COCCn1c(SCC(N)=O)nc2c(c1=O)SC(C)C2` (stereo not shown): the “hERG current change (%, negative = inhibition) at 1uM” value amounted to 7.72%.
As for `N/C(=N\OC(=O)/C=C/c1ccccc1Cl)c1ccccn1`, the “hERG current change (%, negative = inhibition) at 1uM” value came to 5.28%.
In the case of `COC(=O)Cn1cc(C(=O)c2ccco2)c2ccccc21` it was 4.43%.
Consider `N#Cc1ccc(-c2ccc(OCC(=O)NCC(=O)Nc3ccc(F)c(F)c3F)cc2)cc1`, for which the “hERG current change (%, negative = inhibition) at 1uM” value is -2.68%.
In the case of `O=C(c1ccccc1)N1CCN(c2ccc([N+](=O)[O-])c(NCC3CCCO3)c2)CC1` (stereo not shown), the “hERG current change (%, negative = inhibition) at 1uM” value is recorded as -7.95%.
`O=C(NCC1CCCO1)c1cc2ccccc2cc1O` (stereo not shown): the “hERG current change (%, negative = inhibition) at 1uM” value is recorded as 6.99%.
Consider `N#Cc1ccc(CN2CCN(C(=O)CNS(=O)(=O)c3ccc4c(c3)OCCCO4)CC2)cc1`, for which the “hERG current change (%, negative = inhibition) at 1uM” value came to 0.354%.
For the compound `COc1ccc(NC(=O)c2cccc(S(=O)(=O)N3CCCCCC3)c2)cc1`, the “hERG current change (%, negative = inhibition) at 1uM” value was determined as 5.87%.
In the case of `Nc1ccc2nn(-c3cccc4ccccc34)nc2c1`, the “hERG current change (%, negative = inhibition) at 1uM” value came out at 4.08%.
Turning to `Cc1cc2nnc(SCC(=O)NCC(c3ccccc3)N(C)C)n2c2ccccc12` (stereo not shown), the “hERG current change (%, negative = inhibition) at 1uM” value came to 8.65%.
As to `COc1cccc(CNC(=O)c2ccc(CS(=O)Cc3ccc(C)cc3)o2)c1` (stereo not shown), the “hERG current change (%, negative = inhibition) at 1uM” value stood at 9.53%.
For `CC(=O)Nc1sc(N/N=C\c2ccccc2F)nc1-c1cccs1` the value was 5.96%; for `CCOC(=O)c1cc2c(=O)n3ccccc3nc2n(C(C)C)c1=NC(=O)c1ccncc1`, -35.1%; for `COc1ccc(NC(=O)CN(C)CC(=O)Nc2cccc(C(C)=O)c2)cc1`, 8.92%.
For `Cc1ccc(S(=O)(=O)Nc2cccc(-c3ccc(N4CCCCCC4)nn3)c2)cc1`, the “hERG current change (%, negative = inhibition) at 1uM” value amounted to 15%.
For `Cc1ccc(C)c2c1cc(C)c1nnc(SCC(=O)NCc3ccc4c(c3)OCO4)n12` the value was 1.46%.

Source of the values: PMC4336329 (PLoS ONE, 2015).
